Measurements reported in PubChem BioAssay AID624417 (National Center for Advancing Translational Sciences (NCATS), 2012).
Among all 410,000 compounds or so, about 6,400 (1.6%) were called active. Inconclusive means that the source gave no clear call. Such entries were picked first, then a sample of the others. Calls come from the whole dose curve; as a rule, active = well fitted inhibition curve with a large enough effect; inconclusive = small, poorly fitted or top-dose-only effect; inactive = no such curve, though single readings can be large or run the other way. No potency is given beside an inconclusive call; the fits are too rough.

The compounds below were run against Glucagon-like peptide 1 receptor (Homo sapiens) (UniProt P43220) (assay: qHTS of GLP-1 Receptor Inverse Agonists (Inhibition Mode)). Details: HEK293 GLP-1R CRE-luciferase, luminescence, 24 h, GLP-1R form is constitutively active; series mostly up to 38.3 µM.
Method in brief: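 Inverse agonists were sought by their lowering of basal cAMP reporter luciferase output in HEK293 cells stably carrying constitutively active human GLP-1R, after 24 h compound treatment.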
Note: nearly all actives have a fitted effect of over 55% in size.
Potency is the fitted concentration of half-maximal effect; tags give direction and shape of the fitted curve.

Sequence of UniProt P43220 (P43220 whole entry, looked up): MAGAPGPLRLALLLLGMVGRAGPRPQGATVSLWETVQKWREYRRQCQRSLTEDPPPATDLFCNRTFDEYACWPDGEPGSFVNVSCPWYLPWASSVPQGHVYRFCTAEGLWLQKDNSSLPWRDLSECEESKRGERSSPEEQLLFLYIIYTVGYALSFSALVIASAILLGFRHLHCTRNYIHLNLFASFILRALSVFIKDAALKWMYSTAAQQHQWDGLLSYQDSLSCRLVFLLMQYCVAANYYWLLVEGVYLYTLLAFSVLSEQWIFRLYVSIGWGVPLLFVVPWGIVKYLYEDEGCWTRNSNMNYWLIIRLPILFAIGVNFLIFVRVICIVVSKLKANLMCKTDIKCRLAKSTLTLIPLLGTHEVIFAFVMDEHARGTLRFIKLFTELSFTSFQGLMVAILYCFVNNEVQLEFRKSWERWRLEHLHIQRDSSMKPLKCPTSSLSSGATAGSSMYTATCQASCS

SMILES | Potency
Cc1c(C(=O)NC2CCCc3ccccc32)oc2ccccc12 (stereo not drawn) | inconclusive [inhibitor, partial curve, poor fit]
Nc1c(C(=O)Nc2ccc3c(c2)OCCO3)nnn1CCc1ccccc1 | inactive
CCc1nc(SCC(=O)N2CCN(c3ccccc3)CC2)c2oc3ccccc3c2n1 | inactive
COc1ccc(C(C)(O)c2nc(-c3cc(F)cc(F)c3)cs2)cc1 (stereo not drawn) | inconclusive [inhibitor, single point]
COc1ccc(N2CCN(C(=O)C(Cc3ccccc3)NC(=O)c3ccccc3)CC2)cc1 (stereo not drawn) | inconclusive [inhibitor, partial curve, poor fit]
Nc1nc(-c2ccccn2)nc(N)c1Cc1c(F)cccc1Cl | inconclusive [inhibitor, single point]
O=C(Cc1ccccc1)NC(Nc1ccccc1)C(Cl)(Cl)Cl (stereo not drawn) | inconclusive [inhibitor, single point]
C/C(=C\C(=O)c1ccccc1)Nc1ccc(Cl)c(Br)c1 | inactive
COc1ccccc1N1CCN(S(=O)(=O)CCNC(=O)c2ccc(OC(C)C)cc2)CC1 | inconclusive [inhibitor, single point]
COc1ccc(CNC(=O)CN(C(=O)CCC(=O)Nc2ccccn2)c2cccc(C)c2)cc1 | inconclusive [inhibitor, single point]
FC(F)(F)c1ccc2c(c1)[nH]c(=S)n2C1CC1 | inconclusive [inhibitor, partial curve, poor fit]
O=S(=O)(Nc1cc(F)ccc1F)c1ccc2[nH]c3c(c2c1)CCCCC3 | inconclusive [inhibitor, single point]
Cc1cc(C)n(CC(O)Cn2c(C)c(C)c3ccccc32)n1 (stereo not drawn) | inconclusive [inhibitor, single point]
Cc1ccc2oc(=O)c3cc(C(=O)N4CCN(c5ccccc5F)CC4)sc3c2c1 | inactive
COc1ccc(CCCc2nc3ccccc3[nH]2)cc1 | inconclusive [inhibitor, partial curve, poor fit]
C=CCN(C(=O)c1cccc(S(=O)(=O)N2CCN(C)CC2)c1)c1nc(-c2ccccc2)cs1 | active: 11.2 µM
O=C(Cc1cccs1)Nc1ccccc1-c1nc2ccccc2[nH]1 | inconclusive [inhibitor, partial curve, poor fit]
CC1Cc2ccccc2N1c1nc(C2CC2)nc2c1nnn2Cc1ccccc1 (stereo not drawn) | inconclusive [inhibitor, partial curve, poor fit]
